Reference: PubChem BioAssay AID488969 (Vanderbilt High Throughput Screening Facility, 2010)
Over roughly 110,000 compounds, “z-score” has its median near -0.1; the highest 2% begin near 2. This is one part of the list.

The molecules below were run against Metabotropic glutamate receptor 8 (Rattus norvegicus) (UniProt P70579) (assay: rat mGluR8 modulators via GIRK flux, primary screen, cell-based, thallium flux, HTS (AID 488969)). Conditions: HEK293 rat mGluR8, GIRK (G protein-gated inwardly rectifying potassium channel) thallium flux, FluoZin2; at 10 µM; stronger effect = higher value; submaximal glutamate (EC20) added with thallium.
Chain of UniProt P70579 (P70579 whole entry, looked up): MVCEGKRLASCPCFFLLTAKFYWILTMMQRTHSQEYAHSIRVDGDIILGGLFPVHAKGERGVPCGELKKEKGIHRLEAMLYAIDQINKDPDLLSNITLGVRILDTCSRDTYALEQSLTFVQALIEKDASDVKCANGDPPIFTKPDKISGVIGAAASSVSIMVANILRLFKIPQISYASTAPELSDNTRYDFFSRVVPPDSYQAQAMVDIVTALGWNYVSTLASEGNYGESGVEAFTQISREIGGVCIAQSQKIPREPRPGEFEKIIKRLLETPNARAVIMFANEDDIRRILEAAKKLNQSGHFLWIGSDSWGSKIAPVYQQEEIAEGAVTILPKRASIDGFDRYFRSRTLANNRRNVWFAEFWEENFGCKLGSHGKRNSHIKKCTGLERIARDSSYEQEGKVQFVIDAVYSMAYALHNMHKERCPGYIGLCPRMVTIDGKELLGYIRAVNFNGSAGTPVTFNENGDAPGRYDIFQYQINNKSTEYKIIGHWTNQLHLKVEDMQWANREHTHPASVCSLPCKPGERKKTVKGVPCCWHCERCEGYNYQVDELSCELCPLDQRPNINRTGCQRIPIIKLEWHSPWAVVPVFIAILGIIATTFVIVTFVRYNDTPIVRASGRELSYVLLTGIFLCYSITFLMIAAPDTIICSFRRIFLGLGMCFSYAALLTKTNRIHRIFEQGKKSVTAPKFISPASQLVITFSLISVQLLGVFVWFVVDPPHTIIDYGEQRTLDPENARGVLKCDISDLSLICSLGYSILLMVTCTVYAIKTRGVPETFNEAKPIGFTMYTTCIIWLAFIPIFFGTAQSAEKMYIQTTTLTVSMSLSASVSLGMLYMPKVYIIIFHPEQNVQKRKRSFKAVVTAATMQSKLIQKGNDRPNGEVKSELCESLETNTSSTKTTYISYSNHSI

| Structure (SMILES) | z-score |
| --- | --- |
| O=C(CN1CCOCC1)N1CCN(C(=O)CN2CCOCC2)CC1 | -0.434 |
| Cc1cc(C)n2c(Nc3ccc4c(c3)OCCO4)c(-c3ccccc3)nc2n1 | -1.03 |
| COc1cccc(OC)c1C(=O)NC(=S)N1CCN(c2ccc(C(F)(F)F)cc2[N+](=O)[O-])CC1 | 0.046 |
| O=C(O)CC(Cc1ccccc1)C(=O)Nc1ccc([N+](=O)[O-])cc1 (centres undefined) | 0.0189 |
| CCOC(=O)c1nn(-c2ccccc2)c(C#N)c1NC(=O)c1nn(CC)cc1Br | -1.51 |
| CC(=O)c1cccc(NC(=O)Nc2cccnc2)c1 | 0.308 |
| Cc1ccc(NC(=O)CSc2nnc(Cc3cccn3C)n2-c2ccc(F)cc2)cc1 | 0.6 |
| Cc1ccc(C)c(S(=O)(=O)N2CCN(C(=O)Cn3c(C(F)(F)F)nc4ccccc43)CC2)c1 | -0.0506 |
| COc1ccc(N2C(=O)C3CCCN3C2c2cc(OC)c(OC)cc2OC)cc1 (centres undefined) | 0.128 |
| COc1ccc(Nc2cc(C)nc3ccccc23)cc1 | 2.44 |
| Nn1cc(-c2ccccc2)nc1SCC(=O)N1CCN(S(=O)(=O)c2ccc3ccccc3c2)CC1 | 0.37 |
| CCC(C)(C)NC(=O)C(c1cccn1C)N(Cc1ccccc1)C(=O)Cn1nnc2ccccc21 (centres undefined) | -0.00609 |
| COc1ccc(OC)c(NC(=O)CSc2nnc(Cn3nnc4ccccc43)n2C)c1 | -0.116 |
| CS(=O)(=O)N(CC(=O)NC1CC1)C1CCCCC1 | -0.374 |
| CCOC(=O)N1CCC(NC(=O)c2sc(-n3cccc3)nc2C)CC1 | -0.417 |
| COc1cccc(C2=CC(c3cccc(OC)c3OC(F)F)n3nnnc3N2)c1 (centres undefined) | 1.27 |
| O=C(C1CC1)N1CCc2cc(S(=O)(=O)N(CCO)Cc3ccccc3)ccc21 | -0.0768 |
| O=C(CCCCCN1C(=O)c2ccccc2C1=O)Nc1ccc2c(c1)OCCO2 | -0.289 |
| Cc1nnc(SCC(=O)NC2CCCCC2)n(N)c1=O | -0.389 |
| N#Cc1nc(-c2ccc(OCc3ccccc3Cl)cc2)oc1NCCCn1ccnc1 | 0.43 |
| Cc1cc([N+](=O)[O-])ccc1NCc1ccccc1 | -0.481 |
| Cc1c(Cl)cccc1NC(=O)CCN1CCCCC1 | -0.0598 |
| CCCCN1CN(S(=O)(=O)c2cccs2)c2nc3ccccc3nc21 | 0.284 |

| Structure (SMILES) | z-score |
| --- | --- |
| Cc1cccc(/C=C/C(=O)c2cc(Br)ccc(=O)c2O)c1 | 2.75 |
| CC(C)(C)c1ccc(OCC(=O)O)cc1 | 0.0593 |
| CC(=O)NC1C(OCc2ccccc2)OC(COC(C)=O)C(OC(C)=O)C1OC(C)=O (centres undefined) | 0.186 |
| O=[N+]([O-])c1ccc(S(=O)(=O)Nc2ccc(-c3csc(-c4ccccc4)n3)cc2)cc1 | -0.169 |
| Cc1ccc(S(=O)(=O)c2cc(N3CCOCC3)nc(-c3ccccc3)n2)cc1 | 0.349 |
| CCOc1ccccc1C(=O)Nc1cc(C(=O)NCCc2ccccc2)ccc1Cl | -0.0618 |
| CN(C(=O)c1ccc(NC(=O)C2CC=CCC2C(=O)O)cc1)c1ccccc1 (centres undefined) | 0.0801 |
| CC(OC(=O)Cc1coc2cc3c(cc12)CCC3)C(=O)NCc1ccc2c(c1)OCO2 (centres undefined) | 0.706 |
| Nc1nonc1C(=Nc1ccccc1)NO | -0.164 |
| Cc1ccnc(SCc2cc(=O)c(OC(=O)c3ccco3)co2)n1 | -0.256 |
| CN(C)S(=O)(=O)NC(c1ccccc1)c1ccccc1 | 0.199 |
| O=C(N1CCCCC1)N1CCCN(C(=O)N2CCCCC2)CC1 | 0.845 |
| CCn1c(COc2ccc3c(c2)CCCC3)nnc1SCC(=O)Nc1nccs1 | 0.066 |
| Cc1nn(CC(=O)Nc2ccccn2)c(=O)c2ccccc12 | -0.242 |
| Cc1ccc(C(C(=O)NCC2CCCO2)N(Cc2ccccc2F)C(=O)Cn2nnc(-c3cccs3)n2)cc1 (centres undefined) | -0.157 |
| COCCSc1ccccc1C(=O)Nc1ccc2c(c1)OCCO2 | 0.3 |
| CCOc1ccc(C2SCC(=O)N2c2c(C)n(C)n(-c3ccccc3)c2=O)cc1 (centres undefined) | 0.918 |
| O=C1c2ccccc2-c2onc3ccc(Oc4ccccc4)c1c23 | -0.193 |
| COC(=O)c1ccc(S(=O)(=O)NNC(=O)COc2ccc(C)cc2)cc1 | 0.426 |
| Cc1ccc(C(=O)CSc2ncnc3sc4c(c23)CCC(C)C4)cc1 (centres undefined) | 0.974 |
| O=C(CSc1nnc(Cc2cccs2)n1Cc1ccco1)Nc1cc(Cl)cc(Cl)c1 | 0.0549 |
| COc1ccc(NC(=O)CCc2ccccc2)cc1NC(=O)c1ccco1 | -0.225 |
| CC(C)(C)c1ccc(S(=O)(=O)N2CCCC2C(=O)NC2=NCCS2)cc1 (centres undefined) | 0.241 |

| Structure (SMILES) | z-score |
| --- | --- |
| Cc1ccccc1Nc1nnc(SCC(=O)NC2CCCc3ccccc32)s1 (centres undefined) | -0.382 |
| Fc1ccc(N2CCN(Cc3cnc(Oc4ccc(Br)cc4)s3)CC2)cc1 | 0.648 |
| O=C(COC(=O)[C@H](Cc1ccccc1)NS(=O)(=O)c1ccccc1F)NC1CCCCC1 | -0.525 |
| COc1cc(NC(=O)COc2cccc(OC)c2)cc(OC)c1 | 0.638 |
| S=C(NCCc1ccccc1)N/N=C/c1ccccc1Cl | 0.283 |
| CC1(C)Cc2ccccc2-c2c1c(=O)n(Cc1ccccc1)c1nnnn21 | 0.0459 |
| Cc1cc(NC(=O)CSc2ccc3nnc(-c4cccs4)n3n2)no1 | -0.611 |
| O=C(O)CCC(=O)N1CC=C(c2ccccc2)CC1 | -0.42 |
| COc1ccc(-c2cc(C(=O)NC(C)C)no2)cc1 | -0.699 |
| Cc1cc(C)c(N(C(=O)Cn2nnc3ccccc32)C(C(=O)NC(C)(C)C)c2ccsc2)c(C)c1 (centres undefined) | -0.119 |
| CS(=O)(=O)c1ccc(Cl)c(S(=O)(=O)NCc2ccccc2)c1 | 0.117 |
| CCOc1ccc(C(=O)NCC(=O)OCc2cc(C(C)=O)ccc2OC)cc1 | -0.3 |
| O=C(NCc1ccccc1)C(=O)NCC1COc2ccccc2O1 (centres undefined) | 0.58 |
| COc1cccc(CC(=O)Nc2ccc3nc(C)sc3c2)c1 | -0.206 |
| CC(=O)c1sc(Nc2nc3ccc(F)cc3s2)nc1C | 0.302 |
| Cc1cccc(-n2cnc(C(=O)Nc3cccnc3)c2)n1 | 0.694 |
| O=C1C2CC=CCC2C(=O)N1c1ncn[nH]1 (centres undefined) | -0.102 |
| CCc1ccc(N2CC(C(=O)NCc3ccc4c(c3)OCO4)CC2=O)cc1 (centres undefined) | -0.18 |
| COc1cc(OC)cc(-c2nc3ccccc3c(=O)o2)c1 | -0.0482 |
| C=CCn1c(COc2ccccc2F)nnc1SCC(=O)Nc1cc2oc3ccccc3c2cc1OC | 0.0078 |
| O=C(NN=C1CCN(Cc2ccccc2)CC1)c1cc2ccccc2cc1O | 0.155 |
| O=C(Cn1nnc(-c2ccccc2F)n1)Nc1ccc(C(=O)N2CCOCC2)cc1 | -0.416 |
| Cc1ccc2nc(-c3ccc(NC(=O)COC(=O)c4ccc(=O)[nH]c4)cc3)sc2c1 | 0.666 |
